Data on 4 compounds can be found in PubChem BioAssay (NCI).

This assay concerns NCI-H322M lung. Put plainly: NCI anticancer screen, dose series, 48 h.

The structures appear in SMILES notation.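 1) Cells in 96-well plates. 2) Compound, 48 h, 5 concentrations. 3) Linear interpolation between surrounding doses. 4) Unreached endpoint = highest concentration. GI50 is the concentration that inhibits growth by half. At the TGI there is no net growth.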

In the case of `O=C1CCC(N2C(=O)c3cccc(NCCCCCC(=O)N4CCN(c5ccc6nc7c(nc6c5C(F)(F)F)C(=O)c5ncccc5C7=O)CC4)c3C2=O)C(=O)N1` (stereo not drawn), the GI50 is 165 nM and the TGI was found to be 576 nM.
For `Cn1cc(-c2cc(N)n3nc(-c4c[nH]c5ccc(Cl)cc45)cc3n2)c2cccnc21`, in that order: 1910 nM and 4800 nM.
Consider `CCCCCCCCCCCCCCCCCCCC(=O)NCCc1c[nH]c2ccc(OC(=O)CCCC(=O)OCCOOCCOOCCOOCCOOCCOOCCOOCCOOCCOOCCOOCCOOCCOOCCOC)cc12`, for which the GI50 is more than 100000 nM and the TGI was more than 100000 nM.
For `CN1CCN(C(=O)CCN(C(=O)Oc2cc3c(c4ccccc24)[C@H](CCl)CN3C(=O)c2cc3cc(OCCCN4CCC4)ccc3[nH]2)[C@H]2CCSSC2)CC1`, the GI50 was 191 nM and the TGI stood at 692 nM.
